Test results from PubChem BioAssay (NCI).
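Results reflect a 48-hour exposure of cells in 96-well plates to compound at five concentrations. GI50 = concentration required for 50% inhibition of growth. The concentration for full growth arrest is given as TGI.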

Tested on: NCI-H322M lung
Experiment: inhibition of tumour cell growth, NCI panel, 48 h

| SMILES | TGI | GI50 |
| --- | --- | --- |
| C=C1CC2(OC1=O)c1ccccc1C=Cc1ccccc12 | 30.1 µM |  |
| COc1cccc(/C(C=O)=C(\Cl)c2ccc(OC)c(OC)c2)c1 | 28.6 µM |  |
| CCCCCCNC(=O)Oc1ccc(/C(=C(\C)c2ccccc2)c2ccc(OCCN3CCCCC3)cc2)cc1 | 27.9 µM | 10.2 µM |
| CCN(Cc1nc2cc(C(F)(F)F)ccc2nc1-c1ccccc1)c1ccc(OC)c(OC)c1 | > 100 µM | 31 µM |
| COc1ccc(/C=C2\N=C(c3ccccc3)N(Nc3nnc(NN4C(=O)/C(=C/c5ccc(OC)cc5)N=C4c4ccccc4)c4ccccc34)C2=O)cc1 | > 100 µM |  |
| COC1C=C(NCC2(CO)CCC2)NC(N)=N1 (configuration not stated) | > 100 µM |  |
| CN(C)c1ccc2nc3c(C(=O)O)cc(=O)c(O)c-3oc2c1 | > 100 µM |  |
| Cc1[nH]n(-c2nc3c(c(=O)[nH]2)CCC3)c(=O)c1CCO | > 100 µM |  |
| O=C1C(Cl)C(c2ccc(Cl)cc2)N1n1cnc2ccccc2c1=O (configuration not stated) | > 100 µM |  |
| CCOC(=O)c1c(C)n(CC(C)C)c2c1cc1oc(=O)c(=O)n3cnc2c13 | > 50 µM | 13.7 µM |
| C[C@@H]1CC[C@H]2C(COC/C=C/COCC3=C(C(F)(F)F)O[C@@H]4O[C@@]5(C)CC[C@H]6[C@H](C)CC[C@@H]3[C@@]46OO5)=C(C(F)(F)F)O[C@@H]3O[C@@]4(C)CC[C@@H]1[C@]32OO4 | > 100 µM | 4.63 µM |
| Nc1nc(Cl)cc(NCC2(CO)CCC2)n1 | > 100 µM |  |
| Oc1cc(O)cc(/C=C/c2ccc(O)c(O)c2)c1 | > 100 µM |  |
| CCOC(=O)N1C/C(=C/c2ccc(OC)cc2)C(=O)/C(=C/c2ccc(OC)cc2)C1 | > 61.7 µM | > 32.4 µM |
| CCN(CC)Cc1ccc2cccnc2c1O | > 100 µM |  |
| COc1ccc2c(c1)N(C(C)=O)CN1C(=O)CCC21 (configuration not stated) | > 100 µM |  |
| C[C@H]1C(OCCOC2O[C@@H]3O[C@@]4(C)CC[C@H]5[C@H](C)CCC([C@H]2C)[C@@]35O4)O[C@@H]2O[C@@]3(C)CC[C@H]4[C@H](C)CCC1[C@@]24O3 (some centres not stated) | > 100 µM |  |
| CC(C)C[C@H](NC(=O)CCc1ccccc1)B(O)O | > 100 µM |  |
| C=CCNC(=O)/C(Cc1cc(Br)c(OC)c(Br)c1O)=N\O | 34.4 µM |  |
| Cc1ccccc1-n1c(/C=C\c2ccccn2)nc2ccccc2c1=O | 89.7 µM | 25.3 µM |
| O=C(CCc1ccccc1)On1nnc2ccccc2c1=O | > 100 µM |  |
| O=[N+]([O-])/C(Cl)=C(\Nc1ccccc1)C(Cl)=C(Cl)Cl | > 100 µM |  |
| O=C(c1cc(Br)ccc1O)c1cc(Br)ccc1O | 30.7 µM |  |
| COc1ccc(NC(=O)c2sc3nc(C)c(C(O)c4ccc(OC)cc4)cc3c2N)cc1 (configuration not stated) | > 50 µM | 0.34 µM |

| SMILES | TGI | GI50 |
| --- | --- | --- |
| CCOC(=O)N1c2ccccc2S(=O)(=O)c2ccccc21 | > 100 µM |  |
| O=C(CCC(=O)N/N=C/c1ccccc1O)N/N=C/c1ccccc1O | > 100 µM |  |
| COC(=O)c1c2c(c(C)[n+]([O-])c1C)C(=O)C(NCc1cccc(OC)c1)=CC2=O | 6.34 µM | 2.3 µM |
| COc1ccc(/C(Cl)=C(\C=O)c2ccc(Br)cc2)cc1OC | > 100 µM |  |
| CCN(CC)CCCCCOc1cc(O)c2c(=O)cc(-c3ccccc3)oc2c1 | 20.2 µM | 7.21 µM |
| CC1(C)CCCCCCCCCC(C)(CCCO)C1=O (configuration not stated) | 24.7 µM |  |
| CC(=O)NCC1(c2ccccc2)CCN(CC2COc3ccccc3O2)CC1 (configuration not stated) | > 100 µM |  |
| Cn1cnc([N+](=O)[O-])c1SCC(=O)O | > 100 µM |  |
| COc1ccc(/C=C/c2nc(=S)[nH][nH]2)cc1 | > 100 µM |  |
| O=C1Nc2ccccc2[C@]12C[C@H]2c1ccccn1 | > 100 µM |  |
| CS(=O)c1ccc(-c2nc(-c3ccc(F)cc3)c(-c3ccncc3)[nH]2)cc1 (configuration not stated) | > 100 µM | 29.6 µM |
| O=C(O)c1ccc(N=Nc2cc(S(=O)(=O)O)c3cccnc3c2O)cc1 | > 100 µM |  |
| CS(=O)(=O)c1[nH]nc2[nH]c(=O)[nH]c(=O)c12 | > 10 µM |  |
| O=[N+]([O-])c1cc(Cl)cc2c1nc(NCCO)c1ccccc12 | > 100 µM |  |
| COc1cccc2c1cc([N+](=O)[O-])c1c(C(=O)O)cc3c(c12)OCO3 | > 100 µM | 26.1 µM |
| O=C(Nc1cccc(C(F)(F)F)c1)c1cccc(NC2=C(Cl)C(=O)N(Cc3ccccc3)C2=O)c1 | > 100 µM | > 100 µM |
| COc1cc2ccc1-c1cc(ccc1O)CC1c3cc4c(cc3CCN1C)Oc1c(OC)cc3c(c1O4)C(C2)N(C)CC3 (configuration not stated) | 4.04 µM |  |
| C/C(=N\NS(=O)(=O)c1ccc(C)cc1)C(CN(C)C)C(c1ccccc1)c1c(O)c2ccccc2oc1=O (configuration not stated) | > 100 µM |  |
| CO[C@@](c1ccccc1)(c1nc(C#N)c(N)o1)C(F)(F)F | > 100 µM |  |
| CCOC(=O)C1=C(NC(C)(C)C)OCC1=O | > 100 µM |  |
| O=c1n(-c2ccccc2)c(=O)n2n1C1CCC2CC1 | > 100 µM |  |
| CN(C)c1nc(N(C)C)n2nc(-c3ccccc3[N+](=O)[O-])nc2n1 | > 100 µM |  |
| O=c1oc2ccccc2cc1-c1nnc(-c2ccccc2)s1 | > 100 µM |  |
| COc1ccc2nc3cc([N+](=O)[O-])ccc3c(NNc3ccc(Cl)cc3)c2c1 | > 100 µM |  |

| SMILES | TGI | GI50 |
| --- | --- | --- |
| COc1cc(-c2nc(SCC(=O)Nc3ccc(C(C)=O)cc3)[nH]c(=O)c2C#N)cc(OC)c1OC | > 100 µM | 30.3 µM |
| CCCC[P+](c1ccccc1)(c1ccccc1)c1ccccc1 | > 100 µM | 14 µM |
| O=C(c1ccco1)c1c(C(F)(F)F)nc2cc(C(F)(F)F)ccc2[n+]1[O-] | > 100 µM | 79.2 µM |
| COc1cc2c(cc1OC)C1C(O)C(OC)C=C3CC[N+](C)(C2)C31 (configuration not stated) | > 100 µM |  |
| COc1ccc(Nc2nc(N)c(C(=O)c3ccc(OC)cc3)s2)cc1 | > 59.2 µM |  |
| COc1ccc(C2C(c3ccccc3)C(=O)N2c2cc(OC)c(OC)c(OC)c2)cc1I (configuration not stated) | > 100 µM | 0.546 µM |
| Cc1ccc2[nH]c(C(=O)NN3C(=O)CSC34CCCC(C)C4)c(-c3ccccc3)c2c1 (configuration not stated) | 37.7 µM | 18 µM |
| Cc1cccc2c1Oc1cc(Cl)ccc1C2NC(=O)CN(C)C (configuration not stated) | > 100 µM |  |
| Cc1c2ncccc2nc2[nH]c3ccc(OCCN(C)C)cc3c12 | 11.6 µM | 1.38 µM |
| O=C(CC1(O)C(=O)Nc2ccc(Br)cc21)c1ccc(C(=O)NCC2CCC3(CC2)OOC2(CCCCC2)OO3)cc1 (configuration not stated) | 33.8 µM | 13.8 µM |
| NC12CC3CC(C1)CC(Cl)(C3)C2 | > 100 µM |  |
| CCCCCC(=O)OCC(=O)O[C@@H]1C[C@]2(C(C)C)O[C@@]1(C)[C@@H]1CC[C@@H](C)[C@H]1[C@@H]2OC(=O)/C=C/c1ccccc1 | > 100 µM | > 85.4 µM |
| COc1ccc(CNc2nc(NCc3ccc(OC)cc3)nc(NC(C)C)n2)cc1 | 53.5 µM |  |
| CN(/N=C/c1ccnc2ccccc12)c1ccc([N+](=O)[O-])cc1[N+](=O)[O-] | > 100 µM |  |
| COc1ccc(NC(=O)Nc2ccc(Nc3nc(C)cc(Nc4ccc(C)cc4)n3)cc2)cc1 | 3.09 µM | 1.59 µM |
| NCS(=O)(=O)O | > 100 µM |  |
| CN(C)c1ccc(/C=C2\N=C(N/N=C/c3ccccc3)NC2=O)cc1 | > 100 µM |  |
| O=C(/C=C/c1c(O)ccc2ccccc12)c1cccc2ccccc12 | > 100 µM |  |
| COc1ccc(-c2onc(-c3c(C)cc(C)cc3C)c2C2=NCCCN2)cc1 | > 100 µM |  |
| Cc1cc(=O)[nH]c(NN2C(Cl)C(=O)C2c2cccc([N+](=O)[O-])c2)n1 (configuration not stated) | > 100 µM |  |
| CCOC(=O)c1cc(C2CCN(CC(C)CC)C2=S)c(C(=O)/C=C(/C)N)[nH]1 (configuration not stated) | > 50 µM |  |
| C=C(C)[C@@H]1CC[C@@H](C)[C@](O)([C@@H]2C[C@@H]([C@H](COC(=O)c3ccccc3)OC(=O)c3ccccc3)OC2=O)C1 | > 100 µM |  |
| CCc1ccc(/C(C)=N/NC(N)=S)cc1 | > 100 µM |  |
